Columns and labels:
[1] = test system: Trichoderma reesei cellulase composition; experiment: Hydrolysis of AVICEL® (microcrystalline cellulose) by the Trichoderma reesei cellulase composition with/without GH61 polypeptide and sulfur-containing compound; type: biochemical
Experimental: (§1) The effect of various sulfur-containing compounds on the cellulolytic enhancing activity of GH61 polypeptides was evaluated according to the procedures described below.

[2] = test system: Trichoderma reesei cellulase composition; experiment: Hydrolysis of milled washed pretreated corn stover (PCS) by the Trichoderma reesei cellulase composition with/without GH61 polypeptide and sulfur-containing compound; type: biochemical; settings: milled washed PCS, T. aurantiacus GH61A polypeptide, L-cysteine 5 mM present
Experimental: as §1

Q: With `N[C@@H](CS)C(=O)O` [L-cysteine] as the molecule, how does the “sulfur-containing compound effect(+GH61)” value ([1]; AVICEL®, L-cysteine 10 mM, T. aurantiacus GH61A polypeptide 14 mg per liter (25% w/w of cellulase), 1 and 3 days, FIG. 3A) read?
A: Its value is greater than 1.

Q: What about the “sulfur-containing compound effect(no GH61)” value ([1]; AVICEL®, L-cysteine 10 mM, no GH61 polypeptide, 1 and 3 days, FIG. 3A) of the same molecule?
A: Its value is greater than 1.

Q: And the “GH61 effect (ratio of percent conversion with/without GH61 polypeptide, Equation 4)” value ([1]; AVICEL®, T. aurantiacus GH61A polypeptide, sulfur-containing compound present (L-cysteine or glutathione 5 mM), 1, 3 and 7 days, FIG. 1)?
A: The value was “greater than 1”.

Q: And the “Cellulolytic enhancing activity of the GH61 polypeptide in the presence of the compound” value ([1]; hydrolysis of AVICEL®, T. aurantiacus GH61A polypeptide)?
A: Its value is “apparent”.

Q: And the “GH61 effect (Equation 4)” value ([2]; 7 days)?
A: Its value is “approximately 1.35±0.01”.

Q: And the “GH61 effect (Equation 4)” value ([2]; FIG. 2)?
A: The value was “greater than 1”.

B1: T. reesei GH61B polypeptide: GH61B polypeptide having cellulolytic enhancing activity (SEQ ID NO: 16), recombinantly prepared in Aspergillus oryzae JaL250 (protein, listed as Trichoderma reesei)
chain: MKSCAILAALGCLAGSVLGHGQVQNFTINGQYNQGFILDYYYQKQNTGHFPNVAGWYAEDLDLGFISPDQYTTPDIVCHKNAAPGAISATAAAGSNIVFQWGPGVWPHPYGPIVTYVVECSGSCTTVNKNNLRWVKIQEAGINYNTQVWAQQDLINQGNKWTVKIPSSLRPGNYVFRHELLAAHGASSANGMQNYPQCVNIAVTGSGTKALPAGTPATQLYKPTDPGILFNPYTTITSYTIPGPALWQG
Q: With B1 as the molecule, how does the “Effect of the GH61 polypeptide on hydrolysis of AVICEL® (microcrystalline cellulose) by the T. reesei cellulase composition” value ([1]; in the absence of a sulfur-containing compound, listed as Trichoderma reesei GH61B polypeptide) read?
A: Its value is “did not significantly enhance”.
